# The whole screen tested about 200,000 compounds, of which about 25 (0.01%) were called active. Roughly 23% stayed inconclusive and do not appear here. Calls follow the shape of the dose curve; as a rule, active = well fitted inhibition curve with a large enough effect in the signal ratio, with a control signal flat (not every such curve was filed as active); inconclusive = small, poorly fitted or top-dose-only effect, or effect the other way, or a change in a side signal; inactive = flat fitted curve, though single readings scatter; the % refers to the signal ratio. The list shows a part of the results, in another mix than the full data.
# Assay: qHTS Assay for Modulators of Lamin A Splicing
# Conditions: HeLa LMNA splicing GFP/RFP minigene ratio, 48 h; series mostly up to 46.1 µM; ratio change, negative = inhibition: at the top concentration
# Method in brief: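 Read-out is the ratio of GFP to DsRed2 object intensity, acquired by 488 nm laser-scanning cytometry on HeLa lamin A-EGFP minigene reporter cells. Compound incubation 48 hrs at 37 °C in Opti-MEM with 2% FBS; DMSO 0.5% final.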
# % is scaled to controls: 0 for no effect and ±100 for the full control effect; potency is read from the fitted curve at half-maximal effect.
Structure (SMILES),"ratio change, negative = inhibition",Potency
O=C(O)C1=CC(=C(c2ccc(O)c(C(=O)O)c2)c2ccc(O)c(C(=O)O)c2)C=CC1=O,inactive: -3.58%,
Cc1[nH]c(=O)[nH]c(=O)c1S(=O)(=O)N1CCN(c2cccc(Cl)c2)CC1,inactive: 2.3%,
CCOC(=O)N1CCN(c2ccc(O)cc2)CC1,,active: 12.6 µM
CCC(C)C(=O)OC1CC(C)C=C2C=CC(C)C(CCC3CC(O)CC(=O)O3)C21 (stereo unspecified),inactive: -5.13%,
CCN(CC)CCOCCOC(=O)C1(c2ccccc2)CCCC1,inactive: -25%,
C[C@@H]1C[C@H]2[C@@H]3CCC4=CC(=O)C=C[C@]4(C)[C@@]3(F)[C@@H](O)C[C@]2(C)[C@H]1C(=O)CO,inactive: -5.55%,
N[C@H]1CONC1=O,inactive: -19.5%,
CC(Oc1ccccc1)C(=O)NC1C(=O)N2C(C(=O)O)C(C)(C)S[C@@H]12 (stereo partly specified),inactive: -2.64%,
CCCNC(=O)NS(=O)(=O)c1ccc(Cl)cc1,,inactive
CC(=O)c1cc(-c2ccccc2)n(CC(=O)Nc2ccc(C)c(C)c2)c1C,inactive: 1.74%,
Clc1cccc(Cl)c1NC1=NCCN1,inactive: -27.5%,
Nc1nc2c(ncn2COC(CO)CO)c(=O)[nH]1,,inactive
CNCCc1ccccn1,inactive: -4.62%,
O=C(c1ccc(F)cc1)C1CCN(CCn2c(=O)[nH]c3ccccc3c2=O)CC1,inactive: -2.35%,
Cc1occc1C(=O)N/N=C/C=C/c1ccccc1[N+](=O)[O-],inactive: 20.6% [at 46 µM],
CCS(=O)(=O)NCC(c1ccco1)N1CCN(c2ccc(F)cc2)CC1 (stereo unspecified),inactive: 4.18%,
NC1(C(=O)O)CC1,inactive: -7.46%,
O=C1NCC2(CCN(CCc3ccccc3)CC2)O1,inactive: -17.1%,
C[C@@](Cc1ccc(O)c(O)c1)(NN)C(=O)O,,inactive
CC1(C)SC2[C@H](NC(=O)C(NC(=O)N3CCNC3=O)c3ccccc3)C(=O)N2C1C(=O)O (stereo partly specified),inactive: -6.7%,
Cc1ccc(CSCC(=O)N2CCN(c3ccc(F)cc3)CC2)cc1,inactive: -6.99% [at 46 µM],
COc1ccc(CCNC(=O)CCCCCn2c(SCC(N)=O)nc3cc4c(cc3c2=O)OCO4)cc1OC,inactive: 15.6% [at 46 µM],
CC1=NS(=O)(=O)c2cc(Cl)ccc2N1,,inactive
CC(C)NCC(O)COc1ccc(CC(N)=O)cc1 (stereo unspecified),inactive: -3.21%,
COc1ccc(/C=C\C(=O)c2c(O)ccc3c(C)cc(=O)oc23)cc1,inactive: -2.09%,
Cn1cc[nH]c1=S,inactive: -2.36%,

# Reference: PubChem BioAssay AID1487 (National Center for Advancing Translational Sciences (NCATS), 2009)
